Experimental data as given in the supplement of paper PMC3334620.
Over roughly 33,000 sequences, “E-score (-0.5 to 0.5)” has its median near -0.054; the highest 2% begin near 0.39. Some of the results follow.

Target: Ylr278c (UniProt Q05854)
Test: PBM E-score (8-mer binding enrichment) (E-score (-0.5 to 0.5)); higher = stronger / more preferred TF binding; most listed sequences are background and not binding sites
Details: protein concentration: 200 nM; construct: GST-DNA-binding domain
Procedure: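 Universal 'all 10-mer' protein binding microarrays (Agilent AMADID 015681) probed with GST-tagged S. cerevisiae TFs (full-length or DBD) made by in vitro transcription/translation (PURExpress), about 100-200 nM. Bound TF was detected with fluorescent anti-GST. Each ungapped 8-mer (which stands for itself and its reverse complement) is scored by the PBM enrichment score (E-score), a modified Wilcoxon-Mann-Whitney statistic from -0.5 to +0.5, computed with the Universal PBM Analysis Suite. Scale: above 0.35 generally sequence-specific binding.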

Sequence	PBM E-score
CTTCGAGA	-0.25
GTCAAAAA	-0.166
AAAGTGAC	-0.102
CCTAGTCA	-0.332
TAAATATA	0.0739
ACTGGCCT	0.0103
GCTTGGCA	-0.34
CGCTGATA	0.00244
ACGGCTGG	-0.112
ACAGGCGG	0.193
AGGTACGG	0.0825
CAGAGTAG	-0.16
ATGACATG	-0.263
ATAACTTA	-0.18
CCCCGCCG	0.356
GAGTTGTA	0.0552
CATTAACA	-0.0451
CGACTGAG	-0.181
AGTGGAAT	0.0572
CCTAACGC	0.0801
CATCAGTA	-0.233
AGCTGAAT	-0.156
AACCGAGG	-0.189
CGTTCCTC	0.134
CACTGTTA	-0.232

Sequence	PBM E-score
ACCGCTGC	-0.0483
CATTGTAA	-0.116
CATCATGA	-0.183
ACGACTCC	-0.0232
AACCGCAG	-0.0582
ACAGCTGC	-0.166
ATAACCTG	-0.188
ATGATTGA	-0.215
CTGACCTA	-0.183
GGAGGGCC	0.19
ACCACACA	-0.147
CCACGCAC	-0.0469
ATATGGTC	-0.00161
ATCTGCCA	-0.139
CTCGCTTA	0.00111
AAATTGTT	0.00433
ATACCTCG	-0.0876
CCTATCGC	0.0771
AAGCGGGC	0.0848
AGACGGCA	0.111
ATGGCGCC	0.083
AATCGCGA	0.122
CCGATCCG	0.424
TATGTCAA	0.109
AAGTCGCA	-0.00263

Sequence	PBM E-score
CCATAAGC	-0.105
CAGCACTG	-0.0915
GGCAAGGA	0.0422
CCGGTAAA	0.383
AAGAGAGC	-0.14
ACTCGACC	-0.0462
ATAGATAA	0.0665
CACTGTAG	-0.0461
AGAGCGCC	0.0193
AGTACCGA	0.188
GCCACAAC	-0.0472
CCACAGGC	-0.306
AGCCATCG	0.0731
GACTGATC	-0.125
AAGCCCGC	0.266
ACGAGCCA	-0.224
GATTGACC	-0.0654
GATTGACA	-0.0352
AGGGTCTG	-0.203
AGTCTAAT	-0.157
CAGACCAG	-0.181
CCTGTGCA	-0.189
AGACATTC	-0.121
CCAAAGAA	-0.0951
CATCGATA	0.0361

Sequence	PBM E-score
CGCCGACG	0.339
ACACCCCC	-0.133
GTGGGAAC	-0.189
GGCGCCAC	0.0927
CAGCTTCC	-0.0366
TGGATACA	-0.256
AAAGTAAG	-0.263
CATCGGGC	0.211
ACGACTAA	-0.226
GCCAGCAA	-0.1
CCCGTTGA	-0.0405
GGCGGACC	0.413
CTAAACAC	-0.033
AGGGATCG	-0.0441
CACCTCAG	-0.255
CAAGGCCA	-0.211
CGTGAGGC	-0.0809
GGCGGGAA	0.236
ACGACTAT	-0.191
CTCATCCC	-0.0552
ACCGCCCT	-0.0338
CAGATTGC	-0.172
ATTTAGTC	0.126
GCCAACTA	-0.167
CGAAAAGC	-0.0191

Sequence	PBM E-score
CCATTCGC	-0.127
TGTCGTAA	-0.3
CCCGTGTC	0.223
CAGAGGAA	-0.153
CACGGTCG	-0.0763
TCTAGGCA	-0.137
CTGTCTAA	-0.0463
TCCAAGCA	-0.0596
GATTCCGC	0.355
ACGGTGGG	0.062
ATCGTAAC	0.108
CGGTACCG	0.38
GGCTTTTA	0.114
GCTGGTCC	0.036
AATATGTC	-0.0476
CGCGAGGA	0.0533
ACTTGTAA	-0.144
AAATAAGC	-0.104
TGACAACA	-0.219
ACTAGGCC	-0.126
AGTAAAGG	0.0688
AGAGGTGG	-0.0634
CACGCGAG	-0.0695
GAGCAGAC	-0.166
CACATGCC	-0.0681

Sequence	PBM E-score
ACTCGCAT	-0.0232
CTTGGGGA	-0.0557
CCGTAAGG	-0.122
GTTAGATA	-0.246
GGAACCTA	0.0805
ACTGAATG	0.0241
CGCCTACG	-0.0671
TGACCAAA	-0.121
AATAATCT	0.0605
ATTAGGCG	0.0518
ATGAACGA	-0.166
CACCTCAA	-0.108
ATGACATC	-0.0619
CCCTAGGG	-0.314
TTCAGGAA	-0.0794
CTTGCCAA	-0.243
AAAGACCA	-0.208
GGTGACGA	-0.251
CAGCTCCC	-0.153
GAACCTCC	0.192
ATTAAACA	-0.193
AATATCTA	-0.248
CGCTGCTC	-0.105
CCTTAATC	-0.00157
AAATTCGC	0.0526

Sequence	PBM E-score
CTACAATC	-0.0758
CCGACAGG	0.276
ATCGCGTG	0.0973
CAATACAG	-0.181
CTTTGGAA	-0.088
CGGATATA	0.393
CAACGCCC	-0.0163
TAAACAAA	-0.0843
CGGCTTGA	0.058
CCTTACCA	-0.322
CCAGCACC	-0.116
ACTTAAAG	-0.199
AATGTTAT	-0.153
ACCACCCC	-0.0206
CACCTCTA	-0.0927
CTGTTAAC	0.0467
AAGGTTAG	-0.253
CGATCAGC	0.0597
GGCCAGTA	-0.0297
AGATCCCG	0.31
CAGGGCCC	-0.0214
CGTATTTA	0.0653
AGGCTACA	-0.324
ACTCTCAA	-0.406
AGAACATC	-0.0671

Sequence	PBM E-score
AATGTGCG	0.166
ACAAAGGC	-0.14
AACGTGCC	0.012
GGCACTGA	0.0515
AGCTTCTG	0.00784
CTAACTTC	-0.0501
GGACCTCA	-0.0375
GCTTCAAA	0.00432
ATGAGGGC	0.0575
AACCTATG	-0.27
CGGTAAGC	0.221
AGCTTAAA	-0.183
CCGCAAGC	0.0153
GTCGCGAC	0.204
CACGTGCA	-0.27
CTTAGCAA	-0.178
ACTGATTC	-0.114
GAAATTCA	0.0664
CACAGAGC	-0.2
AGATTTTG	-0.176
GACATAAC	0.179
AGTGTAGG	-0.21
ACTCAAGT	-0.133
GGGCTACA	-0.0376
TGCGGACA	0.356

Sequence	PBM E-score
AACAACAT	-0.13
GCGCTTAC	0.144
CACCCGCA	0.146
CTCCGTGC	0.416
ACAGGGAC	-0.0416
ATCAACAG	0.0678
AGATAGAA	-0.00467
TAAACCCA	-0.17
CTTATCGA	-0.0575
AGCTCCAT	-0.0675
GGTATATA	-0.092
ACACTATA	-0.22
CATGAGGC	-0.035
GTCTATAA	-0.139
AAGATAGG	-0.276
AGCATATG	-0.293
ATTGGGGC	0.0146
AAGGCCCG	0.128
ACAAATCG	0.0892
